Over roughly 110,000 compounds, “z-score” has its median near -0.1; the highest 2% begin near 2. This is one part of the list. The source made the active and inactive calls.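 Rule for the calls: active = z-score in the third read window above 3 or below -3; inactive = the rest.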

The target in this test is Metabotropic glutamate receptor 8 (Rattus norvegicus) (UniProt P70579). As to the kind of experiment: rat mGluR8 modulators via GIRK flux, primary screen, cell-based, thallium flux, HTS (AID 488969). Conditions: HEK293 rat mGluR8, GIRK (G protein-gated inwardly rectifying potassium channel) thallium flux, FluoZin2; at 10 µM; stronger effect = higher value; submaximal glutamate (EC20) added with thallium.
UniProt P70579, sequence (P70579 whole entry, looked up): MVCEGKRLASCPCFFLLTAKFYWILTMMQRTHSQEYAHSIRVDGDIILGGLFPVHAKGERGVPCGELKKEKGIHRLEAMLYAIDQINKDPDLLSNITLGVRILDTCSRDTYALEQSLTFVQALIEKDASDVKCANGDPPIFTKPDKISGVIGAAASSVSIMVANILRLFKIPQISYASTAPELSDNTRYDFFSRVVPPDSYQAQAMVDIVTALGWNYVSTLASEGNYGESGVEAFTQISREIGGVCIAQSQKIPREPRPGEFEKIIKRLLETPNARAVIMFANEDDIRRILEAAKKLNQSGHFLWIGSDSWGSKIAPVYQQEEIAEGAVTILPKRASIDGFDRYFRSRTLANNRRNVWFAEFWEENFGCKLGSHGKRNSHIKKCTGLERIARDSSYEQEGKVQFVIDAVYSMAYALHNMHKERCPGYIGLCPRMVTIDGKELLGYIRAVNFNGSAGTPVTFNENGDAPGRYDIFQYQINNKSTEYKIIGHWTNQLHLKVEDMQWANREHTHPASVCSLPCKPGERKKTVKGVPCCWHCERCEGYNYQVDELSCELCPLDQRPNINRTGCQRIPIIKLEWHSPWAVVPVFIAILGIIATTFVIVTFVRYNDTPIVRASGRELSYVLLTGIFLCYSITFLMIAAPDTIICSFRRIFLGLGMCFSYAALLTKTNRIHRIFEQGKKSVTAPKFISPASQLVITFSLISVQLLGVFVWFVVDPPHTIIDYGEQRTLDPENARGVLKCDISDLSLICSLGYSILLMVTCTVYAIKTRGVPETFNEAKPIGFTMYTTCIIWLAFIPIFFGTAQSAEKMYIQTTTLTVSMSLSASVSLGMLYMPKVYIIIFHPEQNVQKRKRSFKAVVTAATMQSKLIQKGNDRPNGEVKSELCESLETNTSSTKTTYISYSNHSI
`COc1ccc(C(=O)NCC(=O)OCC(=O)N2CCN(S(=O)(=O)c3ccccc3)CC2)cc1` returned a z-score of -0.266.

Compound `O=C(OCN1C(=O)c2ccccc2C1=O)c1ccco1` displayed a z-score of 0.51.

With `CC(C)(C)C1C=C(Sc2ccccc2)C(=O)O1` (centres undefined), the z-score was -0.754.

In turn, `Cc1ccc(CSc2nnc(-c3cccnc3)n2N)cc1` showed a z-score of -0.403.

Compound `Cn1c(=O)n(C)c2cc([N+](=O)[O-])c(N3CCN(C(=O)c4cccc(Cl)c4)CC3)cc21` had a z-score of -0.269.

Take `Cc1cc2c(cc1C)NC(c1ccccn1)C1=C(CC(C)(C)CC1=O)N2` (centres undefined): the z-score was -0.311.

`O=C(OCC1CC(c2ccccc2Cl)=NO1)c1ccc(Br)cc1` (centres undefined) gave a z-score of -0.433.

`Cc1sc(NC(=O)CN2CCN(c3ccccn3)CC2)c(C#N)c1C` showed a z-score of 0.483.

In turn, `Cc1cc(C)cc(NC(=O)COC(=O)CCCNC(=O)c2ccc(Cl)cc2)c1` had a z-score of -0.516.

With `Cc1csc(NC(=O)CCSCCc2ccccn2)n1`, the z-score is -0.178.

On to `Cc1ccc(C)c(N(CC(=O)Nc2ccc(-c3nc4ccc(C)cc4s3)cc2)S(C)(=O)=O)c1`, for which the z-score was -0.3.

As to `Cc1ccc(S(=O)(=O)n2nc(C)c(C#N)c2N)cc1`, the z-score turned out to be 0.264.

Take `CC(=O)N1CCN(CCN=CC2=C(O)CC(c3cccs3)CC2=O)CC1` (centres undefined): the z-score is -0.239.

The compound `NC(=O)c1ccc(NC(=O)COC(=O)c2c3c(nc4ccccc24)/C(=C\c2ccc4c(c2)OCO4)CCC3)cc1` gave a z-score of 0.219.

Compound `O=[N+]([O-])c1nn(-c2ccc3c(c2)OCCO3)n(O)c1=Nc1ccccc1` showed a z-score of -0.288.

As for `O=C(COC(=O)c1ccccc1NC(=O)c1ccco1)Nc1ccc2c(c1)OCO2`, the z-score was -0.318.

Regarding `O=C(NCc1ccc2c(c1)OCO2)C1CC(=O)N(c2ccc(F)cc2)C1` (centres undefined), the z-score came to 0.589.

As to `Cc1cc2nc(-c3cccnc3SCC(=O)NCc3ccco3)[nH]c2cc1C`, the z-score is 0.149.

For `Cn1c(SCc2ccccc2Cl)nc2ccccc21`, the z-score was -0.264.

In turn, `CCOC(=O)C1=C(C)NC(=O)NC1c1ccc(OCCO)c(OC)c1` (centres undefined) yielded a z-score of -0.455.

As to `CCC1CCCCN1C(=O)c1cc2cc(Br)ccc2oc1=O` (centres undefined), the z-score is active: 7.8.

Compound `Cc1ccc(C(=O)NC(=S)N2CC(C)OC(C)C2)cc1[N+](=O)[O-]` (centres undefined) gave a z-score of 0.465.

For the compound `COc1ccc(/C(C)=N/Nc2ccc(C(=O)O)cc2)cc1OC`, the z-score is -0.146.

The compound `COc1ccccc1C(=O)NCCC(=O)N1CC(=O)Nc2ccccc21` had a z-score of 0.0633.

With `COc1ccccc1N1Cc2ccccc2C1`, the z-score turned out to be 0.168.

As to `CCC1(CC)Cc2ccccc2-c2nc(-c3ccccc3)oc(=O)c21`, the z-score is -0.0114.

Consider `CCCCn1c(SCC(=O)NCCc2ccc(OC)c(OC)c2)nc2c1c(=O)n(C)c(=O)n2C`, for which the z-score is -0.507.

Turning to `NNc1nc2c(F)cc(F)cc2s1`, the z-score is -0.193.

As for `CCC(C)NC(=O)CSc1nc2c(sc3ccccc32)c(=O)n1CCCN1CCOCC1` (centres undefined), the z-score was found to be 0.452.

Take `CCCCC(=O)Nc1ccc(NC(=O)c2ccc(C)c([N+](=O)[O-])c2)cc1OC`: the z-score is -0.2.

Compound `CCOC(=O)c1cnn(-c2nc(CC)nc3sc4c(c23)CCC4)c1N` came in with a z-score of 0.937.

Take `CCOC(=O)c1oc2ccccc2c1CN1CCN(C)CC1`: the z-score was -0.155.

`Cc1cc(Cl)ccc1OCCCC(N)=O` displayed a z-score of 0.108.

`O=C(O)c1cc([N+](=O)[O-])c(N2CCCC2)c([N+](=O)[O-])c1` returned a z-score of -0.262.

Take `Cc1ccc(NC(=O)C(=O)Nc2ccccn2)cc1`: the z-score came to 0.304.

`O=C1CN(C(=O)COC(=O)c2cccc(S(=O)(=O)NCc3ccccc3)c2)c2ccccc2N1` came in with a z-score of -0.192.

Regarding `Cn1c(SCc2nc(-c3ccc(Cl)cc3)no2)nnc1-c1ccco1`, the z-score is 0.0893.

With `Cn1c(=O)c2c(nc(-n3ccnc3)n2Cc2ccc([N+](=O)[O-])cc2)n(C)c1=O`, the z-score is -0.129.

The compound `O=C(NCc1cccs1)c1ccc([N+](=O)[O-])cc1Cl` came in with a z-score of -0.192.

Turning to `O=C(CN1C(=O)c2cccc3cccc1c23)Nc1ccc(S(=O)(=O)Nc2nccs2)cc1`, the z-score is -0.289.

Compound `Cc1[nH]c2ccccc2c1/C=N/Nc1ccc([N+](=O)[O-])cc1S(=O)(=O)Nc1ccc(Cl)cc1` showed a z-score of 0.162.

As for `CCCCOCCCNC(=O)c1c(-c2ccccc2)noc1C`, the z-score worked out at 0.0239.

As to `O=C(CSc1nnc(-c2c[nH]c3ccccc23)o1)c1ccccc1`, the z-score is -0.218.

Compound `CCn1c2c(c3cc(Cl)ccc31)CCCC2=O` gave a z-score of -0.422.

Take `CCOC(=O)N1CCC(NC(=O)c2ccc3c(c2)sc2nc(-c4ccc(OC)cc4)cn23)CC1`: the z-score worked out at 1.25.

`CCN(CC)CCCNC(=O)c1nn(-c2ccccc2OC)c(=O)c2ccccc12` came in with a z-score of 0.791.

As for `O=C(CSc1nc2ccccc2s1)NC1CCS(=O)(=O)C1` (centres undefined), the z-score turned out to be 0.199.

In the case of `Cc1ccc(-n2c(=O)c3c4c(sc3n(Cc3cc(=O)n5ccccc5n3)c2=O)CCC4)cc1C`, the z-score is -0.236.

Compound `O=C(NCN1CCN(c2ccccc2F)CC1)c1ccccc1` showed a z-score of 0.915.

For `N#Cc1c(/N=C/N2CCCC2)oc(-c2ccccc2)c1-c1ccccc1`, the z-score is -0.221.

Compound `Cc1ccc(NC(=S)NCc2ccc3c(c2)OCO3)cc1C` gave a z-score of -0.416.

For `O=S(=O)(Nc1ccc2c(c1)OCO2)c1ccccc1`, the z-score was -0.421.

Take `CCCn1nc(NC(=O)c2ccncc2)c2cc3ccccc3nc21`: the z-score was -0.268.

In turn, `CC(C)COc1ccc(/C=C2/Sc3ccccc3C2=O)cc1` registered a z-score of -0.0988.

Compound `Cc1ccc(C)c(NC(=S)NC(NC(=O)/C=C/c2ccccc2)C(Cl)(Cl)Cl)c1` (centres undefined) had a z-score of -0.264.

The compound `CC(C(=O)N1CCOCC1)N1C(=O)c2ccccc2C1=O` (centres undefined) returned a z-score of -0.0607.

With `O=C(Nc1c(C(=O)N2CCCCC2)cnn1-c1ccccc1)c1ccco1`, the z-score is -0.0397.

On to `CCCCCC(=O)NNC(=O)c1ccc(F)cc1`, for which the z-score worked out at 0.0375.

`BrC(/C=N/Nc1nc(N2CCOCC2)nc(N2CCOCC2)n1)=C/c1ccccc1` showed a z-score of -0.171.

For `CC(=O)NS(=O)(=O)c1ccc(NC(=O)CCC2CCCC2)cc1`, the z-score amounted to 0.114.

`CCOc1ccc(C2c3cc(OC)c(OC)cc3CC(=O)N2c2ccccc2)cc1` (centres undefined) gave a z-score of -0.702.

On to `Cc1cc2ncn(C(=O)c3c(-c4ccccc4)noc3C)c2cc1C`, for which the z-score is -0.303.

Take `CC12CCC(C(=O)NCc3cccnc3)(OC1=O)C2(C)C` (centres undefined): the z-score is -0.201.

In turn, `c1cncc(-c2nn3cnnc3s2)c1` displayed a z-score of 0.268.

With `COc1cc(OC)c(C2N(c3cc(C)on3)C(=O)C3CCCN32)cc1OC` (centres undefined), the z-score worked out at 0.0605.

As for `COC(=O)c1cc(OC)c(OC)cc1N=CC1=C(O)CC(C)(C)CC1=O`, the z-score was -0.493.

As for `COc1cccc(-n2nc3c(-n4ncc(C#N)c4N)nnc(C)c3c2C)c1`, the z-score came to 0.0095.

Turning to `Cc1ccc(CNC(=O)c2ccc(CNc3c(N4CCCC4)c(=O)c3=O)cc2)cc1`, the z-score was -0.0913.

`Cc1ccc(-c2ccc(SCC(=O)c3ccccc3)nn2)cc1` had a z-score of 0.138.

Compound `COc1ccc(Cl)cc1NC(=S)NCCC(c1ccccc1)c1ccccc1` showed a z-score of -0.105.

For the compound `Cc1nc(CC(=O)c2ccc(O)cc2O)cs1`, the z-score was found to be 0.257.

Consider `COc1cc(-c2nc(Cc3c(F)cccc3Cl)no2)cc(OC)c1OC`, for which the z-score was -0.564.

With `CCCCN(CCCC)c1nc2ccccc2nc1NS(=O)(=O)c1ccc(NC(C)=O)cc1`, the z-score was -0.388.

`O=C(Nc1cc(C(F)(F)F)ccc1N1CCCC1)c1ccc2c(c1)OCO2` came in with a z-score of -0.575.

`COC(=O)CSC1=C(C#N)C(c2ccc(C)cc2)C2=C(CCCC2=O)N1` (centres undefined) registered a z-score of -1.41.

`CCOc1cc2[nH]c(=S)n(CC3CCCO3)c(=O)c2cc1OCC` (centres undefined): the z-score was -0.137.

Consider `CC1CCCCC1NC(=O)Cn1c(CN2CCCCC2)nc2ccccc2c1=O` (centres undefined), for which the z-score is -0.365.

`COc1cccc(OCCCCN2CC(C)OC(C)C2)c1` (centres undefined) returned a z-score of -0.101.

In turn, `CCCN(c1ccc(OCC)cc1)S(=O)(=O)c1ccc2c(c1)CCN2C(=O)CCC(=O)O` yielded a z-score of -0.582.

Turning to `O=C(COc1cccnc1[N+](=O)[O-])Nc1cccc(S(=O)(=O)N2CCCCC2)c1`, the z-score was -0.289.

On to `CCC(=O)NC(=S)Nc1ccc(NC(=O)c2ccc([N+](=O)[O-])cc2Cl)cc1`, for which the z-score was -0.222.

Consider `O=C(N1CCCCC1)N1CCN(C(c2ccccc2)c2ccccc2)CC1`, for which the z-score is -0.436.

`CCOc1ccc(C(=O)NC(=S)Nc2ccccc2N2CCCCC2)cc1[N+](=O)[O-]` had a z-score of 0.917.

Compound `c1ccc(-n2c(SCC3CCCCO3)nnc2-c2cccs2)cc1` (centres undefined) showed a z-score of -1.71.

In turn, `Cc1ccc(C(=O)CSc2nn3c(=O)c(C(C)(C)C)nnc3s2)cc1` gave a z-score of -0.119.

The compound `On1c2c(c3c4nonc4ccc31)CCCC2` had a z-score of -1.23.

`CCOC(=O)c1c(-c2ccccc2)nc2cc(C)ccn12`: the z-score is -0.492.

On to `CCOC(=O)/C(C#N)=c1/s/c(=C2\C=Cc3ccccc3N2CC)c(=O)n1CC`, for which the z-score was -0.143.

Compound `CN(C)C(=O)CSc1nnc(C23CC4CC(CC(C4)C2)C3)o1` showed a z-score of -0.443.

The compound `N#Cc1cc(-c2ccccc2)cnc1Cl` had a z-score of -0.0944.

On to `Cc1oc(C(=O)O)cc1CSc1nnc(-c2ccccc2)n1C`, for which the z-score turned out to be 0.27.

`O=C(N/N=C/c1cccc([N+](=O)[O-])c1)c1cc2ccccc2o1` had a z-score of -0.259.

Take `Nc1cccc2c1C(=O)N(C(=O)c1cccc(S(=O)(=O)N3CCCCCC3)c1)C2=O`: the z-score is -0.139.

`COc1ccc2c(c1)OC1=C(C(=O)CCC1)C2C1=C(O)CCCC1=O` (centres undefined) yielded a z-score of -0.457.

The compound `COCCn1c(Sc2nc(C)cs2)nc2c1c(=O)[nH]c(=O)n2C` returned a z-score of -0.415.

With `CC(=O)c1cccc(NC(=O)C2CCN(S(=O)(=O)c3cccs3)CC2)c1`, the z-score was found to be 0.399.

`Cc1cc(=O)[nH]c2c1c(C)nn2C1CCCCC1` registered a z-score of -0.354.

On to `O=C(NCCN1CCCC1)C1CCN(S(=O)(=O)N2CCC3(CC2)OCCO3)CC1`, for which the z-score is 0.0078.

In the case of `Cn1c(-c2ccccc2)cnc1SCC(=O)NCc1ccco1`, the z-score worked out at 0.716.

Regarding `O=C(CNC(=O)c1cc2c(s1)CCC2)Nc1ccccc1Br`, the z-score is -0.223.

The compound `Brc1ccc(-c2csc(-c3c[nH]c4ccccc34)n2)cc1` came in with a z-score of 0.0561.

Consider `COc1ccccc1/C=c1\sc2nc(-c3ccccc3OC)nn2c1=O`, for which the z-score is -0.577.

Take `Cc1ccc2cc(COC(=O)c3ccncc3)c(=O)[nH]c2c1`: the z-score was -0.162.

Compound `Cc1ccc(C(=O)NC(=S)NNS(=O)(=O)c2ccc(C)cc2)cc1` yielded a z-score of 0.234.

With `CC1=NN(C(=O)c2ccccc2Br)C(O)(c2cccnc2)C1` (centres undefined), the z-score was -0.108.

On to `CCOC(=O)NC(Nc1sc2c(c1C(=O)OC)CCN(C)C2)(C(F)(F)F)C(F)(F)F`, for which the z-score is -0.197.

`Cc1nnc(SCC(=O)Nc2ncc3c(n2)CC(C)(C)CC3=O)s1` came in with a z-score of 0.0881.

`CCN(CC)C(=O)N1CCC(NC(=O)Cc2ccccc2)CC1` came in with a z-score of 0.989.

For `C/C=C/c1ccc(OCCCCOc2ccccc2C(C)=O)c(OC)c1`, the z-score was -0.015.

The values above are taken from PubChem BioAssay AID488969 (Vanderbilt High Throughput Screening Facility, 2010).
